PubChem BioAssay AID1461 (National Center for Advancing Translational Sciences (NCATS), 2008)
Values joined by “and” are separate entries in the source; they are usually repeats but may differ in a detail not shown here. Equal entries are not always repeated. Out of some 220,000 compounds screened, about 2,300 (1%) were called active. The shares of active, inactive and inconclusive entries below differ from those in the screen. The call rests on the fitted dose curve; in most records, active means well fitted inhibition curve with a large enough effect; inconclusive means small, poorly fitted or top-dose-only effect, or effect the other way; inactive means no such curve, though single readings can be large or run the other way. Potencies of inconclusive entries are doubtful fits and often do not repeat.

What follows are compounds tested against Neuropeptide S receptor (Homo sapiens) (UniProt Q6W5P4) (assay: qHTS Assay for Antagonists of the Neuropeptide S Receptor: cAMP Signal Transduction). Settings: CHO-NPSR cells, cAMP TR-FRET, antagonist mode; activity change, negative = inhibition: at 38.3 µM (top of the series) unless noted.
UniProt Q6W5P4, sequence (Q6W5P4 whole entry, looked up): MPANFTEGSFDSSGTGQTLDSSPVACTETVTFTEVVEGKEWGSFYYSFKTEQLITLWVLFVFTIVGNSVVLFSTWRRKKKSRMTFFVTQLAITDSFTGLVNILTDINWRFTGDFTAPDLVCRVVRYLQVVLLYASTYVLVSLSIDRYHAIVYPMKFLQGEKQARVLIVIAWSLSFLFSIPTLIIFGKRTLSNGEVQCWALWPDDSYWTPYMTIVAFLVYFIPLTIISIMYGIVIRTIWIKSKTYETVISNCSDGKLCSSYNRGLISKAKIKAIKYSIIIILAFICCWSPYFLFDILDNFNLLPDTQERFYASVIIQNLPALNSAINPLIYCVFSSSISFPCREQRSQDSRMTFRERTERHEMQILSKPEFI
Further: nearly all actives have a fitted effect of over 50% in size.
On the % scale 0 is the no-effect control and ±100 the full control effect; potency means the concentration at half of the fitted maximal effect; tags describe the fitted curve by direction and shape.

SMILES	Potency	activity change, negative = inhibition
CN(CCCNC(=O)c1cc2c(Cl)nc3ccccc3c2s1)Cc1ccccc1	inactive	
CCC1CCCCN1C(=S)NC(=O)c1cccs1 (centres undefined)	inactive	
O=C(CCc1ccccc1)NNC(=O)Cc1ccc(Cl)cc1	inactive	
Cn1c(Cc2csc(N)n2)nnc1SCC(=O)NCc1ccccc1	inactive	
O=C(COC(=O)c1ccccc1C(=O)c1ccc(Cl)c([N+](=O)[O-])c1)NC1CC1	inconclusive: 25.1 µM [inhibitor, single point]	
O=C1N=C(N2CCC(Cc3ccccc3)CC2)S/C1=C/c1cn[nH]c1-c1ccccc1	inconclusive: 10 µM [inhibitor, single point]	
Cc1nnc2c(NC3CCCC3)nc3ccccc3n12	inactive	
Cc1ccccc1C(=O)Nc1nc2c(C)csc2c(=O)s1	inconclusive: 12.6 µM [inhibitor, single point]	
Clc1ccccc1CN(Cc1ccccc1)C(c1cccs1)c1nnnn1C1CCCC1 (centres undefined)	inconclusive: 7.94 µM [inhibitor, partial curve]	
CN1CCc2c(sc3c2c(=O)n(-c2ccc(Cl)cc2)c2nncn32)C1	inconclusive: 3.98 µM [inhibitor, single point]	
COC(=O)c1ccccc1NC(=O)Cn1ccnc1	inconclusive: 0.0794 µM [inhibitor, single point]	
CN(C)c1ccnc2sc(C(=O)NCc3ccccc3)c(N)c12	inconclusive: 12.6 µM [inhibitor, partial curve, poor fit]	
COc1ccccc1-c1cc2ccccc2[nH]1	inconclusive: 2.51 µM [activator, full curve]	
COc1ccccc1NS(=O)(=O)c1cccc(NC(=O)Nc2cccc(Cl)c2)c1	inconclusive: 12.6 µM [inhibitor, single point]	
O=C1c2ccccc2S(=O)(=O)N1CC(O)COc1ccc(Cl)cc1 (centres undefined)	inactive	
CN1CCN(C(=O)c2cc(-c3cccc(Cl)c3)on2)CC1	inactive	
O=C(Nc1nnc(-c2ccco2)o1)c1cccc2ccccc12	inactive	
Oc1c(Br)cc(Br)cc1/C=N/NC(=S)N[C@H]1CC2C=CC1C2 (some centres undefined)	inconclusive: 15.8 µM [activator, single point]	
COc1ccc(C(=O)N(Cc2ccco2)Cc2cccs2)c(O)c1	inconclusive: 1.26 µM [activator, full curve]	
COc1ccc(S(=O)(=O)N2CCN(C(=O)c3cccc(Cl)c3)CC2)cc1		inconclusive: -36.2% [inhibitor] [at 46.1 µM]
O=C(NC1CCCC1)C(c1ccsc1)N(Cc1ccccc1)C(=O)Cc1cccs1 (centres undefined)	inconclusive: 10 µM [inhibitor, partial curve]	
Cc1cccc(N=N/C(=C\O)C(=O)c2cccs2)c1	inconclusive: 25.1 µM [inhibitor, single point]	
CN(C)CCCN1c2ccccc2Sc2ccc(Cl)cc21	inconclusive: 12.6 µM [inhibitor, partial curve] and inconclusive: 25.1 µM [inhibitor, single point]	
Cc1ccccc1/C=c1\s/c(=C\C(=O)C(C)(C)C)[nH]c1=O	inconclusive: 10 µM [activator, single point]	
O=C1NC(=S)SC1=C1CCCCCC1		inactive: -19.5% [at 7.67 µM]

SMILES	Potency	activity change, negative = inhibition
O=C(NC(=S)NCCC1=CCCCC1)c1ccco1	inconclusive: 12.6 µM [inhibitor, single point]	
Clc1cccc(Cl)c1Cn1nnc(N2CCCC2)n1	inactive	
O=C(NCc1cccnc1)c1sc2cc(Cl)ccc2c1Cl	inconclusive: 10 µM [inhibitor, single point]	
O=C(N/N=C/c1ccc(Cl)cc1)c1sccc1OCc1ccc(F)cc1	inactive	
O=C(NCc1nc2ccccc2[nH]1)C1=C[C@H](c2ccc(C(F)(F)F)cc2)C[C@H](OCc2ccc(CO)cc2)O1	inconclusive: 10 µM [activator, partial curve]	
CCc1ccc(NC(=O)C2CCN(S(C)(=O)=O)CC2)cc1	inconclusive: 12.6 µM [inhibitor, single point]	
O=C(NCc1cccs1)Nc1cccs1	inactive	
O=[N+]([O-])c1ccccc1N/N=C/c1ccc2c(c1)OCO2	inactive	
Cc1ccc(-c2nc(N)sc2CC(=O)OCC(=O)NC2CCCC(C)C2C)cc1 (centres undefined)	inconclusive: 10 µM [inhibitor, single point]	
Cc1ccc(OC(=O)c2ccccc2C(=O)OCC(F)(F)C(F)F)cc1	inconclusive: 15.8 µM [inhibitor, single point]	
C=CCc1cc(Cl)ccc1OCCOCCNC(C)CC (centres undefined)	inconclusive: 10 µM [activator, single point]	
N/C(=N\OC(=O)CCc1ccccc1)c1cccc(Br)c1	inactive	
Cc1c(C(=O)N2CCC(Cc3ccccc3)CC2)cccc1[N+](=O)[O-]	inactive	
CCOc1c(Cl)cc(C(=O)Nc2ccccc2-c2ccccc2)cc1Cl	inactive	
Cc1nn(Cc2ccc(C(=O)Nc3nc4c(C)cccc4s3)o2)c(C)c1Br	inconclusive: 12.6 µM [inhibitor, partial curve]	
Nc1ncc([N+](=O)[O-])cc1Br	inactive	
O=C(O)C(c1ccccc1)N1C(=O)/C(=C/c2cccs2)SC1=S (centres undefined)	inactive	
COc1cc(C(CC(=O)N2CCCC2)c2c(OC)cc(OC)c3c(-c4ccccc4)cc(=O)oc23)cc(OC)c1OC (centres undefined)	inconclusive: 10 µM [inhibitor, single point]	
c1ccc(-c2ccccc2OCCCN2CCCC2)cc1	inactive	
Cc1c(CCOC(=O)CC23CC4CC(CC(C)(C4)C2)C3)sc[n+]1CC(=O)c1ccccc1	inconclusive: 10 µM [activator, partial curve]	
Cc1cc(C)cc(OCC(=O)Nc2ccc(N3CCCC3)cc2)c1	inconclusive: 10 µM [inhibitor, single point]	
CCn1nc(C)cc1C(=O)Sc1cccc(Br)c1	inconclusive: 25.1 µM [activator, single point]	
CC(=O)c1ccc(N(C(=O)Cc2c[nH]c3ccccc23)C(C(=O)NC2CCCCC2)c2cccs2)cc1 (centres undefined)	inconclusive: 10 µM [inhibitor, single point]	
O=C(CC(c1ccccc1)c1ccccc1)N1CCN(c2ccccn2)CC1	inactive	
Fc1ccc(Cc2nnc(-c3cccs3)o2)cc1	inactive	

SMILES	Potency	activity change, negative = inhibition
Cc1ccccc1OCC(=O)Nc1ccccc1N1CCC(C)CC1	inconclusive: 12.6 µM [inhibitor, single point]	
CCN(CC)S(=O)(=O)c1ccc(Cl)c(C(=O)Oc2cccnc2)c1	inactive	
Cc1ccc(NC(=O)COC(=O)Cc2csc(-c3ccc(Cl)cc3)n2)cc1C	inactive	
Cc1cc(N/N=C/c2cccc([N+](=O)[O-])c2)nc(-n2nc(C)cc2C)n1	inconclusive: 12.6 µM [activator, single point]	
CN(Cc1cccs1)C(=O)Cc1c[nH]c2ccccc12	inconclusive: 0.0251 µM [activator, full curve, poor fit]	
COc1cc(C(=O)NCCC(=O)NC(C)C)cc(OC)c1OC	inactive	
O=[N+]([O-])c1cc(-c2cnc3ccccc3n2)ccc1Cl	inactive	
CCC(=O)Nc1cccc2c1C(=O)N(C)C2=O	inactive	
c1ccc(Nc2nc(NCc3ccco3)c3ccccc3n2)cc1	inconclusive: 12.6 µM [inhibitor, single point]	
Cc1ccc(C(c2nnnn2CCc2ccccc2)N2CCSCC2)cc1 (centres undefined)	inconclusive: 10 µM [inhibitor, single point]	
O=C1C=CC(=O)N1c1ccc(O)cc1	inconclusive: 25.1 µM [activator, single point]	
COc1cc(/C=C/C(=O)c2ccc(NS(=O)(=O)c3ccc(C)cc3)cc2)cc(OC)c1O	inconclusive: 10 µM [inhibitor, single point]	
COc1cc2oc3ccccc3c2cc1N(CC(=O)N1CCCCC1)S(=O)(=O)c1ccc(C)cc1	inconclusive: 10 µM [inhibitor, partial curve]	
CNS(=O)(=O)c1cccc(C(=O)OCC(=O)N(CCC#N)c2ccccc2)c1	inactive	
NC(N)=N/N=C/c1cccc(Cl)c1Cl	inconclusive: 2.51 µM [inhibitor, full curve, poor fit]	
O=S(=O)(Nc1ccc(-c2csc(-c3ccccc3)n2)cc1)c1ccccc1	inconclusive: 25.1 µM [inhibitor, single point]	
COc1ccc(C(=O)Nc2cccc3c2C(=O)NC3=O)cc1S(=O)(=O)N1CCOCC1	inconclusive: 10 µM [inhibitor, single point]	
C#CCO[C@@H]1C[C@H](n2cnc3c(NC(=O)c4ccccc4)ncnc32)O[C@@H]1CO	inactive	
Cc1ccc(S(=O)(=O)Cc2c(C)noc2C)cc1	inactive	
CCOC(=O)c1c(NC(=O)c2nn(CC)cc2Br)c(C#N)cn1-c1ccccc1	inconclusive: 25.1 µM [inhibitor, single point]	
NC(=O)COC(=O)c1ccc(Cl)c(S(=O)(=O)N(Cc2ccccc2)c2ccc(Cl)cc2)c1	inconclusive: 15.8 µM [inhibitor, single point]	
Nc1ccn([C@@H]2O[C@H](CO)[C@@H](O)[C@@H]2O)c(=O)n1	inconclusive: 20 µM [inhibitor, single point]	
Nc1ncnc2c1ncn2C1CCCO1 (centres undefined)	inconclusive: 0.0008 µM [inhibitor, full curve, poor fit]	
COc1ccc(N2CCN(C(CNC(=O)C3CCCCC3)c3cccnc3)CC2)cc1 (centres undefined)	inconclusive: 0.631 µM [inhibitor, single point]	
